Consider 31 molecules from PMC9911399, “Two distinct binding modes provide the RNA-binding protein RbFox with extraordinary sequence specificity”.

The chains are these.
T1: RBFOX1 RRM RbFoxmut (Fox-RRM*) (Homo sapiens, UniProt Q9NWB1 109-208, R118D;E147R;N151S;E152T)
T1 sequence: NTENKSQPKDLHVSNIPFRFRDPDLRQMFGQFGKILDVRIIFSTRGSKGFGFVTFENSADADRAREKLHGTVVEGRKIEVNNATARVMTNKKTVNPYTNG

B1: AAGACCA (DNA:RNA)
RNA: GGGAGACCGGAAUUCAGAUUGUCCAAGACCAUUAAAUCCCGUCGUAGCCACCA
DNA 1: CAATCTGAATTCCGGTCTCCC
DNA 2: TGGTGGCTACGACGGGATT
B2: CUCGCUA (DNA:RNA)
RNA: B1 RNA with A25C, A26U, G27C, A28G, C30U
DNA 1: CAATCTGAATTCCGGTCTCCC
DNA 2: TGGTGGCTACGACGGGATT
B3: CUCUUGU (DNA:RNA)
RNA: GGGAGACCGGAAUUCAGAUUGUCCCUCUUGUUUAAAUCCCGUCGUAGCCACCA
DNA 1: CAATCTGAATTCCGGTCTCCC
DNA 2: TGGTGGCTACGACGGGATT
B4: GAAAAGA (DNA:RNA)
RNA: B1 RNA with A25G, G27A, C29A, C30G
DNA 1: CAATCTGAATTCCGGTCTCCC
DNA 2: TGGTGGCTACGACGGGATT
B5: GGCCCGA (DNA:RNA)
RNA: B1 RNA with A25G, A26G, G27C, A28C, C30G
DNA 1: CAATCTGAATTCCGGTCTCCC
DNA 2: TGGTGGCTACGACGGGATT
B6: GCAAUUU (DNA:RNA)
RNA: B3 RNA with C25G, U26C, C27A, U28A, G30U
DNA 1: CAATCTGAATTCCGGTCTCCC
DNA 2: TGGTGGCTACGACGGGATT
B7: AUAUUUA (DNA:RNA)
RNA: B3 RNA with C25A, C27A, G30U, U31A
DNA 1: CAATCTGAATTCCGGTCTCCC
DNA 2: TGGTGGCTACGACGGGATT
B8: CUAUUAU (DNA:RNA)
RNA: B3 RNA with C27A, G30A
DNA 1: CAATCTGAATTCCGGTCTCCC
DNA 2: TGGTGGCTACGACGGGATT
B9: GUUUAGU (DNA:RNA)
RNA: B3 RNA with C25G, C27U, U29A
DNA 1: CAATCTGAATTCCGGTCTCCC
DNA 2: TGGTGGCTACGACGGGATT
B10: GGAACGA (DNA:RNA)
RNA: B1 RNA with A25G, A26G, G27A, C30G
DNA 1: CAATCTGAATTCCGGTCTCCC
DNA 2: TGGTGGCTACGACGGGATT
B11: AGGGGGU (DNA:RNA)
RNA: B1 RNA with A26G, A28G, C29G, C30G, A31U
DNA 1: CAATCTGAATTCCGGTCTCCC
DNA 2: TGGTGGCTACGACGGGATT
B12: UAGUCCC (DNA:RNA)
RNA: B1 RNA with A25U, A28U, A31C
DNA 1: CAATCTGAATTCCGGTCTCCC
DNA 2: TGGTGGCTACGACGGGATT
B13: UAUGCCU (DNA:RNA)
RNA: B1 RNA with A25U, G27U, A28G, A31U
DNA 1: CAATCTGAATTCCGGTCTCCC
DNA 2: TGGTGGCTACGACGGGATT
B14: AUACGCC (DNA:RNA)
RNA: B1 RNA with A26U, G27A, A28C, C29G, A31C
DNA 1: CAATCTGAATTCCGGTCTCCC
DNA 2: TGGTGGCTACGACGGGATT
B15: GUAUGGA (DNA:RNA)
RNA: B3 RNA with C25G, C27A, U29G, U31A
DNA 1: CAATCTGAATTCCGGTCTCCC
DNA 2: TGGTGGCTACGACGGGATT
B16: AUUGGCA (DNA:RNA)
RNA: B1 RNA with A26U, G27U, A28G, C29G
DNA 1: CAATCTGAATTCCGGTCTCCC
DNA 2: TGGTGGCTACGACGGGATT
B17: UCGACGC (DNA:RNA)
RNA: B1 RNA with A25U, A26C, C30G, A31C
DNA 1: CAATCTGAATTCCGGTCTCCC
DNA 2: TGGTGGCTACGACGGGATT
B18: GCCGAAA (DNA:RNA)
RNA: B1 RNA with A25G, A26C, G27C, A28G, C29A, C30A
DNA 1: CAATCTGAATTCCGGTCTCCC
DNA 2: TGGTGGCTACGACGGGATT
B19: ACUAUAC (DNA:RNA)
RNA: B1 RNA with A26C, G27U, C29U, C30A, A31C
DNA 1: CAATCTGAATTCCGGTCTCCC
DNA 2: TGGTGGCTACGACGGGATT
B20: UAUGUAG (DNA:RNA)
RNA: B1 RNA with A25U, G27U, A28G, C29U, C30A, A31G
DNA 1: CAATCTGAATTCCGGTCTCCC
DNA 2: TGGTGGCTACGACGGGATT
B21: UGAUACU (DNA:RNA)
RNA: B3 RNA with C25U, U26G, C27A, U29A, G30C
DNA 1: CAATCTGAATTCCGGTCTCCC
DNA 2: TGGTGGCTACGACGGGATT
B22: GUGCUCU (DNA:RNA)
RNA: B3 RNA with C25G, C27G, U28C, G30C
DNA 1: CAATCTGAATTCCGGTCTCCC
DNA 2: TGGTGGCTACGACGGGATT
B23: UCGUGAA (DNA:RNA)
RNA: B1 RNA with A25U, A26C, A28U, C29G, C30A
DNA 1: CAATCTGAATTCCGGTCTCCC
DNA 2: TGGTGGCTACGACGGGATT
B24: GCGCGGU (DNA:RNA)
RNA: B3 RNA with C25G, U26C, C27G, U28C, U29G
DNA 1: CAATCTGAATTCCGGTCTCCC
DNA 2: TGGTGGCTACGACGGGATT
B25: AAAGUCA (DNA:RNA)
RNA: B1 RNA with G27A, A28G, C29U
DNA 1: CAATCTGAATTCCGGTCTCCC
DNA 2: TGGTGGCTACGACGGGATT
B26: AAAGGGG (DNA:RNA)
RNA: B1 RNA with G27A, A28G, C29G, C30G, A31G
DNA 1: CAATCTGAATTCCGGTCTCCC
DNA 2: TGGTGGCTACGACGGGATT
B27: UCGCACC (DNA:RNA)
RNA: B1 RNA with A25U, A26C, A28C, C29A, A31C
DNA 1: CAATCTGAATTCCGGTCTCCC
DNA 2: TGGTGGCTACGACGGGATT
B28: AGGCCGA (DNA:RNA)
RNA: B1 RNA with A26G, A28C, C30G
DNA 1: CAATCTGAATTCCGGTCTCCC
DNA 2: TGGTGGCTACGACGGGATT
B29: UGGCCAG (DNA:RNA)
RNA: B1 RNA with A25U, A26G, A28C, C30A, A31G
DNA 1: CAATCTGAATTCCGGTCTCCC
DNA 2: TGGTGGCTACGACGGGATT
B30: UUACUAU (DNA:RNA)
RNA: B3 RNA with C25U, C27A, U28C, G30A
DNA 1: CAATCTGAATTCCGGTCTCCC
DNA 2: TGGTGGCTACGACGGGATT
B31: UUGCGAC (DNA:RNA)
RNA: B1 RNA with A25U, A26U, A28C, C29G, C30A, A31C
DNA 1: CAATCTGAATTCCGGTCTCCC
DNA 2: TGGTGGCTACGACGGGATT

Where a chain is given by its changes, count along the chain named. The list shows a part of the results.

The assay addresses T1, RBFOX1 RRM RbFoxmut (Fox-RRM*). In words: EMSA; HiTS-Eq, 1 nM pool, 10 min; buffer printed only for the single-RNA assays: 10 mM Tris pH 7.5, 150 mM NaCl, 3.4 mM EDTA, 0.001% NP-40, 30 C. The settings on record: tags: His6 N-terminal (pET28a); label: 5' 32P. Put shortly:
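These values rest on relative association constants, computed from read-count changes of each RNA species versus the control reaction and normalised to the cognate motif. Reads came from free RNA recovered by 8% native PAGE after purified RbFox RRM (wild type or mutant) at increasing concentrations was equilibrated for 10 min in 50 µL with 1 nM of a 5′-radiolabelled pool with 7 randomized nucleotides and DNA-annealed flanks.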
With B1, the binding signal was 0.0646 KA relative to UGCAUGU. Under B2 stands 0.106 KA relative to UGCAUGU; under B3, 0.169 KA relative to UGCAUGU; under B4, 0.0705 KA relative to UGCAUGU. Under B5 stands 0.11 KA relative to UGCAUGU; under B6, 0.0577 KA relative to UGCAUGU; under B7, 0.153 KA relative to UGCAUGU. B8: the binding signal is 0.119 KA relative to UGCAUGU. On to B9, for which the binding signal was 0.154 KA relative to UGCAUGU. Under B10 stands 0.286 KA relative to UGCAUGU. The same measure for B11: 0.13 KA relative to UGCAUGU. The same measure for B12: 0.0626 KA relative to UGCAUGU; for B13: 0.0911 KA relative to UGCAUGU; for B14: 0.0769 KA relative to UGCAUGU.

As to B15, the binding signal was 0.0822 KA relative to UGCAUGU.

Take B16: the binding signal was 0.137 KA relative to UGCAUGU. Turning to B17, the binding signal was 0.0785 KA relative to UGCAUGU. The same measure for B18: 0.0996 KA relative to UGCAUGU; for B19: 0.136 KA relative to UGCAUGU; for B20: 0.131 KA relative to UGCAUGU. For the molecule B21, the binding signal was 0.112 KA relative to UGCAUGU. Under B22 stands 0.0834 KA relative to UGCAUGU. Under B23 stands 0.122 KA relative to UGCAUGU; under B24, 0.125 KA relative to UGCAUGU; under B25, 0.109 KA relative to UGCAUGU. Under B26 stands 0.0723 KA relative to UGCAUGU; under B27, 0.132 KA relative to UGCAUGU.

For B28, the binding signal is 0.0992 KA relative to UGCAUGU. Consider B29, for which the binding signal is 0.102 KA relative to UGCAUGU. B30: the binding signal was 0.0827 KA relative to UGCAUGU.

Turning to B31, the binding signal was 0.0614 KA relative to UGCAUGU.
